Assay results taken from PubChem BioAssay AID1645886 (National Center for Advancing Translational Sciences (NCATS), 2021).
Screen size: about 16,000 compounds; about 260 (1.6%) were called active. This list was built around the results that the source calls inconclusive (neither active nor inactive); the mix of calls is not that of the screen. The call rests on the fitted dose curve; in most records, active means well fitted inhibition curve with a large enough effect; inconclusive means small, poorly fitted or top-dose-only effect; inactive means no such curve, though single readings can be large or run the other way. Potencies of inconclusive entries are left out as doubtful fits.

biological target: Rap guanine nucleotide exchange factor 4 (Homo sapiens) (UniProt Q8WZA2); experiment: Validation qHTS for antagonist of cAMP-regulated guanine nucleotide exchange factor 4 (EPAC2); conditions: EPAC2 Rap1B BODIPY-GDP exchange, fluorescence; series mostly up to 112 µM; further: nearly all actives have a fitted effect of over 40% in size
UniProt Q8WZA2, sequence (Q8WZA2 whole entry, looked up): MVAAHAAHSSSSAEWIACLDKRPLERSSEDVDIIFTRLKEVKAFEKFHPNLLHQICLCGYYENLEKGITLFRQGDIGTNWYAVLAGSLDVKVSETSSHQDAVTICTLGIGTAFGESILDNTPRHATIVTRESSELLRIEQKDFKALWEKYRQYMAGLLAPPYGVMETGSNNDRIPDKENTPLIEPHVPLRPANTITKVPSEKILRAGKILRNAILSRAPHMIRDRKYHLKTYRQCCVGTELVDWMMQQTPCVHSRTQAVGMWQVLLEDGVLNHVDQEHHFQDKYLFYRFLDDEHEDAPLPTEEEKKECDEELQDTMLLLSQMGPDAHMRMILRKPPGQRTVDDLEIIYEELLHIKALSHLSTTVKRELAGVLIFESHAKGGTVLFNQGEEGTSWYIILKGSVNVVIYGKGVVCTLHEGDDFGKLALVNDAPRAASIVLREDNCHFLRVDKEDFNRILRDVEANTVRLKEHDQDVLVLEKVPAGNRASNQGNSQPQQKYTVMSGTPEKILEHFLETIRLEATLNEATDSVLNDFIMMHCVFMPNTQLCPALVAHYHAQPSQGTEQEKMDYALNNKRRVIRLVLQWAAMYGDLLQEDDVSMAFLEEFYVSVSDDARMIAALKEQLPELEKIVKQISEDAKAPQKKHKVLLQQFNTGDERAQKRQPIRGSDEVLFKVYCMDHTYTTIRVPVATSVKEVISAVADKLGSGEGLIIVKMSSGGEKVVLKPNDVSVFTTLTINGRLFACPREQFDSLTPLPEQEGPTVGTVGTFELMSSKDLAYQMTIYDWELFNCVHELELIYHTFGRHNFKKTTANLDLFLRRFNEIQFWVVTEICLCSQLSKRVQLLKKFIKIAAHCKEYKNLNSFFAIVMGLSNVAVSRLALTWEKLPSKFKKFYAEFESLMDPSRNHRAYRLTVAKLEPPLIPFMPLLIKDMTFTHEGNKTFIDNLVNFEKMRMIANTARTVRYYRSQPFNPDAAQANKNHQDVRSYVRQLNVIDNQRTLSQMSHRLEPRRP
How it was run: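 Fluorescent exchange read-out: 100 nM EPAC2 with 250 nM RAP1B–BODIPY-GDP and 50 uM GDP; BODIPY-GDP release lowers fluorescence. Read at 480/540 nm every 5 min for 30 min at room temperature; normalized to 6.5 mM cAMP.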
Potency means the concentration at half of the fitted maximal effect; tags describe the fitted curve by direction and shape.

Structure (SMILES)	Potency
Cc1nnc2n1-c1sc(CCc3ccc(CC(C)C)cc3)cc1C(c1ccccc1Cl)=NC2C (stereo not drawn)	inconclusive [inhibitor, full curve]
NCC(=O)c1ccc(Cl)c(Cl)c1	inactive
COc1c2c(c(CC=C(C)C)c3oc(=O)c(-c4ccc(O)cc4)c(O)c13)OC(C)(C)C=C2	inconclusive [inhibitor, partial curve, poor fit]
C/C(=C\c1csc(C)n1)[C@@H]1C[C@@H]2O[C@]2(C)CCC[C@H](C)[C@H](O)[C@@H](C)C(=O)C(C)(C)[C@@H](O)CC(=O)O1	inactive
C=CCN1CC[C@]23c4c5ccc(O)c4OC2C(=O)CC[C@]3(O)C1C5 (stereo partly drawn)	inactive
COc1cc(CC(C)N)cc2c1OCO2 (stereo not drawn)	inactive
CN(N=O)c1ccc(O)c(O)c1	inconclusive [inhibitor, single point]
CCOC(=O)[C@]12Cc3cc(Cl)ccc3[C@H]1N(Cc1ccccc1)C(=O)c1ccccc12	inconclusive [inhibitor, full curve, poor fit]
CCC(Oc1ccc(Cl)cc1)C(=O)OC1CC2CCC(C1)N2C (stereo not drawn)	inconclusive [inhibitor, partial curve, poor fit]
CCCCC[C@@H](O)C1C(=O)OC(C)[C@H](O)/C=C/C=C/C=C/C=C/C=C(\C)C(O)C(O)C(O)C[C@H](O)C[C@H](O)C[C@H](O)C[C@H](O)C[C@@H]1O (stereo partly drawn)	inactive
COc1cc2c(cc1OC)[C@@H]1C(=O)c3ccc4c(c3OC1CO2)CC(C(C)C)O4 (stereo partly drawn)	inconclusive [inhibitor, partial curve, poor fit]
C[C@H]1[C@@H]2Cc3ccc(O)cc3[C@@]1(C)CCN2C	inactive
COP(=S)(OC)Oc1ccc(SC)c(C)c1	inconclusive [inhibitor, partial curve, poor fit] and inactive
C=CCN1CC[C@]23c4c5ccc(O)c4O[C@H]2/C(=N/NC(=O)c2ccccc2)CC[C@@]3(O)[C@H]1C5	inconclusive [inhibitor, partial curve, poor fit]
CC(Cc1ccc2c(c1)OCO2)NO (stereo not drawn)	inactive
CC(C)[C@H]1C(=O)N2CCC[C@H]2[C@]2(O)O[C@](NC(=O)[C@@H]3C[C@@H]4c5cccc6[nH]cc(c56)C[C@H]4N(C)C3)(C(C)C)C(=O)N12	inactive
CC(C)CN1CCC2(CC1)CCN(C(=O)Oc1ccccc1)CC2	inactive
O=C1C(I)=CC(=C(c2cc(I)c(O)c(I)c2)c2ccccc2C(=O)O)C=C1I	inconclusive [inhibitor, partial curve]
CCCCCCCCCCCCCC(=O)OC1C(C)[C@@]2(O)C(C=C(CO)C[C@]3(O)C(=O)C(C)=C[C@H]23)[C@@H]2C(C)(C)[C@]12OC(C)=O (stereo partly drawn)	inconclusive [inhibitor, partial curve]
COC(=O)COc1ccc(Cl)cc1Cl	inconclusive [inhibitor, partial curve, poor fit]
Cc1cc(O)ccc1Cl	inconclusive [inhibitor, partial curve, poor fit]
C=CC[C@]1(O)CC[C@H]2[C@@H]3CCC4=CCCC[C@@H]4[C@H]3CC[C@@]21C	inactive

Structure (SMILES)	Potency
Nc1ccccc1C(=O)O	inactive
CC(C)N(C(=O)CCl)c1ccccc1	inconclusive [inhibitor, single point]
CCCN(CCC)c1c([N+](=O)[O-])cc(C(F)(F)F)cc1[N+](=O)[O-]	inconclusive [inhibitor, partial curve]
C=C(C)[C@H]1CN[C@H](C(=O)O)[C@H]1CC(=O)O	inconclusive [inhibitor, full curve]
CN(C)C1C(=O)C(C(N)=O)=C(O)[C@@]2(O)C(=O)C3=C(O)c4c(O)ccc(Cl)c4[C@](C)(O)C3CC12 (stereo partly drawn)	inconclusive [inhibitor, full curve]
c1ccc2c(N3CCNCC3)cccc2c1	inconclusive [inhibitor, single point]
COc1ccc2c(c1)c(CCN1CCOCC1)c(C)n2C(=O)c1cccc(Cl)c1Cl	inconclusive [inhibitor, partial curve, poor fit]
CC=C(C)C(=O)O[C@H]1C(C)=C2[C@@H]3OC(=O)[C@@](C)(O)[C@@]3(O)[C@@H](OC(=O)CCC)C[C@](C)(OC(C)=O)[C@@H]2[C@@H]1OC(=O)CCCCCCC	inconclusive [inhibitor, partial curve]
C=C[C@H]1CN2CC[C@H]1C[C@H]2[C@H](OC(=O)OCC)c1ccnc2ccc(OC)cc12	inactive
CN1Cc2ccccc2[C@@H]2c3cccc4[nH]cc(c34)C[C@H]21	inconclusive [inhibitor, partial curve]
CCCCC[C@@H](/C=C/C=C\CCCCCCCC(=O)O)OO	inconclusive [inhibitor, partial curve, poor fit]
CC1=CC(=O)c2c(O)cccc2C1=O	inconclusive [inhibitor, single point]
C=CCN1C[C@H](C)N([C@H](c2ccc(C(=O)N(CC)CC)cc2)c2cccc(OC)c2)C[C@H]1C	inconclusive [inhibitor, partial curve, poor fit]
COC(=O)/C(C)=C\CC12OC(C)(C)C3CC(C=C4C(=O)c5c(OC)c6c(c(CC=C(C)C)c5OC431)OC(C)(CCC=C(C)C)C=C6)C2=O (stereo not drawn)	inactive
Nc1ccc(N=Nc2ccccc2)cc1	inconclusive [inhibitor, partial curve, poor fit]
Cc1ccc(-c2nc3ccc(C)cn3c2CC(=O)N(C)C)cc1	inconclusive [inhibitor, single point]
CN[C@]1(c2ccccc2Cl)CCCCC1=O	inactive
O=[N+]([O-])c1cc(O)c(O)c([N+](=O)[O-])c1	inconclusive [inhibitor, partial curve, poor fit]
O=C(Oc1ccccc1)N1CCC[C@@]2(CCN(Cc3cc(C(F)(F)F)cc(C(F)(F)F)c3)C2)C1	inconclusive [inhibitor, partial curve, poor fit]
C/C(O)=C(/C#N)C(=O)Nc1cc(Br)ccc1Br	inconclusive [inhibitor, partial curve]
NCCc1ccc(S(=O)(=O)F)cc1	inconclusive [inhibitor, single point]
